Data: the supplement of paper PMC3334620
Over roughly 33,000 sequences, “E-score (-0.5 to 0.5)” has its median near -0.054; the highest 2% begin near 0.39. Some of the results follow.

Target: Ylr278c (UniProt Q05854)
Experiment: PBM E-score (8-mer binding enrichment) (E-score (-0.5 to 0.5)); higher = stronger / more preferred TF binding; most listed sequences are background and not binding sites
Settings: protein concentration: 200 nM; construct: GST-DNA-binding domain
Method: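 Universal 'all 10-mer' protein binding microarrays (Agilent AMADID 015681) probed with GST-tagged S. cerevisiae TFs (full-length or DBD) made by in vitro transcription/translation (PURExpress), about 100-200 nM. Bound TF was detected with fluorescent anti-GST. Each ungapped 8-mer (which stands for itself and its reverse complement) is scored by the PBM enrichment score (E-score), a modified Wilcoxon-Mann-Whitney statistic from -0.5 to +0.5, computed with the Universal PBM Analysis Suite. Scale: above 0.35 generally sequence-specific binding.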

In order of rising “PBM E-score” value:
1. ACCATCGA  -0.304
2. AGGATTAG  -0.245
3. AATAACCT  -0.239
4. AGAGGACT  -0.232
5. CACGACAA  -0.231
6. AACGAGGG  -0.229
7. AGCACCTG  -0.217
8. ATCACAAG  -0.214
9. TCGATCCA  -0.212
10. GAAGGCTA  -0.21
11. CTAAAGTC  -0.203
12. CAGACCTG  -0.203
13. AGTAGTCA  -0.202
14. ACGTCACG  -0.191
15. CTATGAAC  -0.19
16. GTCAGCAA  -0.18
17. TGACATCA  -0.171
18. AGGTTTAC  -0.164
19. ACTCTCTG  -0.163
20. ATCGAGGA  -0.162
21. ATGTATTA  -0.159
22. TATAACCA  -0.151
23. AAAGCAGT  -0.138
24. AAAGACCC  -0.133
25. GACATCGA  -0.126
26. CTGAGAAA  -0.125
27. GGGTATCA  -0.119
28. AACTCTTA  -0.119
29. AATGCCAA  -0.117
30. AGCCATTA  -0.116
31. AAGTACAA  -0.11
32. CCATCATA  -0.102
33. AAGCTACC  -0.102
34. AATCTTGC  -0.1
35. AGCTTACC  -0.098
36. ACTGGAGA  -0.0936
37. CTTATCTC  -0.0869
38. GGTCGTAA  -0.0868
39. TACTCGCA  -0.085
40. ACACTCAA  -0.0759
41. AATGGCCC  -0.0705
42. ACACGTTC  -0.0701
43. CTCTTTTC  -0.0672
44. GACGTGTA  -0.0667
45. ACCTGCCC  -0.0559
46. AGGTTAAT  -0.0384
47. ATGCTTGA  -0.0305
48. CCTGGAGC  -0.03
49. GAGGTGAC  -0.0284
50. TAATTAGA  -0.0264
51. ACTATTAC  -0.0246
52. GCTGAAAA  -0.0238
53. CTACATAA  -0.0134
54. AGGCATAC  -0.013
55. GCTGTACC  -0.00975
56. ATCAGCAA  -0.00911
57. GCTATACC  -0.00728
58. TAAGCGAA  0.00013
59. AACACCAC  0.00024
60. AAGGTGCG  0.0197
61. GAGACAAC  0.0353
62. ACTCAGAA  0.0406
63. AAACAAGC  0.0417
64. AAGAAACC  0.0438
65. AACACGAA  0.0438
66. CTCCCCTC  0.0443
67. AACGGTCC  0.0516
68. AAGATGCG  0.055
69. ACATTTGA  0.0639
70. ACATTCAA  0.0683
71. CATAGGCC  0.0769
72. GTTGCAAC  0.0952
73. ATGCGCGA  0.0964
74. GAGTGTCC  0.0987
75. ATTTGTTC  0.114
76. CGCACCGC  0.123
77. GGCCCGAC  0.124
78. CGCACGCC  0.155
79. CGGATCCA  0.221
80. ACGGCCGG  0.33
81. CCGGGACA  0.339
82. GTTACGGA  0.354
83. CGGAATGC  0.361
84. CTCCCGGA  0.398
85. ATCCGATA  0.399
86. AATGCCGG  0.421
